# Source: PMC4336329 (PLoS ONE, 2015)
# The campaign covered roughly 310,000 compounds. About 14,000 (4.5%) showed an effect of 50% or more. Effects have a minus sign here. This is one part of the list.
# Biological target: human ether-à-go-go-related gene (hERG) potassium channel (human, UniProt Q12809)
# Assay: primary screen, population patch clamp on CHO cells stably expressing hERG
# 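Further: peak tail current of the secondary pulse compared with the same well before compound.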
# Sequence of human ether-à-go-go-related gene (hERG) potassium channel (Q12809 whole entry, looked up): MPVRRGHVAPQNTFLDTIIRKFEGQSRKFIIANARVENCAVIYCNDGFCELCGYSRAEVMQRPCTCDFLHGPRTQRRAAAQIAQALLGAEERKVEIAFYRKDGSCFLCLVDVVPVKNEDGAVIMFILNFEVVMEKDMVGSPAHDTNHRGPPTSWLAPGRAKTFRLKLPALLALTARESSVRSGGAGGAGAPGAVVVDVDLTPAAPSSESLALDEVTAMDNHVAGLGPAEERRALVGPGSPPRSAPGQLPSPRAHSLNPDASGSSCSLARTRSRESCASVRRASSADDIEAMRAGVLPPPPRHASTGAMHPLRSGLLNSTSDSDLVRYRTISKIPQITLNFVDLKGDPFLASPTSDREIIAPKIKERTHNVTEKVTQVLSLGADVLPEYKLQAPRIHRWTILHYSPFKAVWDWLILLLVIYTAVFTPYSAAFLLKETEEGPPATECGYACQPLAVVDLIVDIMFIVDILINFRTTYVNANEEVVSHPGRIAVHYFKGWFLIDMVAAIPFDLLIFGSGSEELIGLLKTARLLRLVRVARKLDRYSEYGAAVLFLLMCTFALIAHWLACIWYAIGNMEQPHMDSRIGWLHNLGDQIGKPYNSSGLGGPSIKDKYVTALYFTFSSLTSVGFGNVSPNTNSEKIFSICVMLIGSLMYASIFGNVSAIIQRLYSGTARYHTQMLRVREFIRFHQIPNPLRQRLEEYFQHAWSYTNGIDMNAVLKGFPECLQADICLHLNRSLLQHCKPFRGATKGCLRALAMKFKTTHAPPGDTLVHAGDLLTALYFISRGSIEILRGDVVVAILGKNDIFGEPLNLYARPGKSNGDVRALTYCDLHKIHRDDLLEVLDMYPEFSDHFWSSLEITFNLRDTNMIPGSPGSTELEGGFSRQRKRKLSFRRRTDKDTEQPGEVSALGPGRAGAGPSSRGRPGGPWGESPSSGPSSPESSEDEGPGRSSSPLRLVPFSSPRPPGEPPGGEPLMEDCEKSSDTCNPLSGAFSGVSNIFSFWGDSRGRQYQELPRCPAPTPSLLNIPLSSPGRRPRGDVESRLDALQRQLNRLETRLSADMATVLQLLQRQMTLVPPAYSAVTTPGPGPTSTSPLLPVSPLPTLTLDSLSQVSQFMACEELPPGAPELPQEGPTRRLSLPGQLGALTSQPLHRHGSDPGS
row,SMILES,"hERG current change (%, negative = inhibition) at 10uM [%]"
1,COc1ccc(-c2nc3c(c(=O)[nH]c(=O)n3Cc3ccccc3)n2Cc2ccccc2)cc1,-29.7
2,CCC(C)NCCOCCOc1ccc(F)cc1.O=C(O)C(=O)O (stereo not shown),-9.21
3,CCc1ccc(-c2cc(C)no2)cc1S(=O)(=O)Nc1cc(C)ccn1,21.7
4,O=c1c2ccccc2nc2n1-c1ccccc1CCC2,-0.695
5,CCCCNC(=O)Cn1cnc2sc(C)c(S(=O)(=O)N3CCN(c4ncccn4)CC3)c2c1=O,6.18
6,O=C(NCc1ccccc1)C1=C[C@H](c2ccc3c(c2)OCO3)C[C@H](OCCCCO)O1,-27.6
7,Cc1ccc(S(=O)(=O)NC(CC(=O)n2nc(C)cc2C)c2ccccc2)cc1 (stereo not shown),-0.931
8,O=C(CO/N=C/c1ccccc1OC(F)F)NC1CCCCC1,-19.5
9,CC(=O)N1c2ccc(S(=O)(=O)N3CCC(C(=O)Nc4cccc(Cl)c4)CC3)cc2CC1C (stereo not shown),15.1
10,CCCOC(=O)COc1cc(C)cc2oc(=O)c3c(c12)CCC3,6.32
11,O=C(CCNS(=O)(=O)c1ccccc1C(F)(F)F)N1CCN(S(=O)(=O)c2cccc(Cl)c2)CC1,-7.8
12,Cc1ccc(-c2noc(CCC(=O)NCCCN3CCN(c4cccc(Cl)c4)CC3)n2)cc1,2.45
13,O=C(Cc1ccc(F)cc1)N/N=C/c1ccc(-c2ccc(Cl)c(C(=O)O)c2)o1,29.7
14,O=C(CCN1CCN(C/C=C/c2ccccc2)CC1)Nc1ccccc1,-74.9
15,COCCN=C1OC(=O)N2C(=O)C3=C4[C@@H](C[C@H]5C(=O)N(c6ccccc6)C(=O)[C@H]5[C@H]4[C@@]12Cc1ccccc1)[C@H]1C(=O)N(c2ccccc2)C(=O)[C@H]1[C@H]3C,6.81
16,Cn1cccc1C(=O)C(=O)Nc1ccc(F)c(F)c1,15.9
17,Cc1ccc(C(=O)N2CC(=O)Nc3ccc(F)cc3C2c2ccccc2)cc1 (stereo not shown),-4.56
18,COc1ccccc1NS(=O)(=O)c1cccc(NC(=S)NCCN2CCOCC2)c1,-7.65
19,COC(=O)C(CCSC)NC(=O)c1cc2c(n(-c3ccc(C)cc3)c1=O)CCCC2=O (stereo not shown),1.53
20,CC(=O)Nc1ccc2c(c1)C(=O)N(c1ccc(C)cc1)C2=O,0.928
21,Cc1cc(OCC(=O)NNC(=S)NC(=O)c2cccs2)ccc1Cl,15
22,Cc1c(Cl)c(C(=O)NNC(=S)NCc2ccco2)nn1C,-1.46

row,SMILES,"hERG current change (%, negative = inhibition) at 10uM [%]"
1,CCc1nnc(NC(=O)CSc2nc(C)cs2)s1,25
2,Cc1ccc(C(=O)N2CCN(c3ncnc4c(-c5ccccc5)nsc34)CC2)cc1,18.1
3,CCc1c(C(=O)NC(C)C2CCCO2)csc1C (stereo not shown),-2.12
4,CCc1nnc(NC(=O)CSc2nnc(CNC(=O)c3cc(OC)c(OC)c(OC)c3)o2)s1,27.5
5,Cc1cc2ncn(C(=O)c3ccc(F)cc3)c2cc1C,10.7
6,O=C(O)c1ccc(N/N=C/C(Br)=C/c2ccccc2)cc1,13.7
7,CCOc1ccccc1NC(=O)c1ccccc1N(C)S(=O)(=O)c1ccc(C)cc1,-1.09
8,O=C(Nc1ccc(F)cc1)C1CCCN(c2cnccn2)C1 (stereo not shown),-11.9
9,Cc1cc(Oc2ccc(C)c(Cl)c2)nc(SCC(=O)c2ccccc2)n1,10.1
10,COc1ccc2c(c1OC)C(=O)N(c1cccc(/C=C/C(=O)O)c1)C2,29
11,Cc1ccc(C)c(C(=O)OCC(=O)Nc2ccc(N3CCOCC3)cc2)c1,0.591
12,Oc1ccc(N2CCN(CC(O)c3ccccc3)CC2)cc1 (stereo not shown),10.4
13,O=C(Nc1cccc2cccnc12)c1ccccc1Cl,-14.5
14,COc1ccc(N2CCN(/C(=N\S(=O)(=O)c3ccc(C)cc3)Nc3nc(C)cc(C)n3)CC2)cc1,-15.3
15,Cc1cc(C)nc(Nc2n[nH]c(-c3ccccc3Br)n2)n1,7.5
16,COc1cc(CCCN2C(=O)C(=O)NC[C@@H]2C(C)O)cc(OC)c1OC (stereo partly shown),-5.41
17,CCOC(=O)/C(C#N)=C\c1ccc(N2CCN(C/C=C/c3ccccc3)CC2)cc1,-12.1
18,CCC1=NN2C(=N)/C(=C\c3ccc(OCCOc4ccccc4OC)cc3)C(=O)N=C2S1,12.6
19,CCC(=O)c1ccc(OCC(=O)N2CCN(c3ccccn3)CC2)cc1,-31.5
20,COc1ccc(C(C(=O)NC2CCCC2)N(C(=O)Cc2cccs2)C2CC2)cc1OC (stereo not shown),-0.77
21,CCc1cc(=O)[nH]c(SCC(=O)N2CCOCC2)n1,-8.36
22,CC1CCC2(CC1)NC(=O)N(CC(=O)N1CCN(c3ccccc3)CC1)C2=O (stereo not shown),7.72

row,SMILES,"hERG current change (%, negative = inhibition) at 10uM [%]"
1,C=CCc1cc(/C=N/NC(=O)CSc2nnc(CCCc3ccc(OC)cc3)o2)cc(OC)c1O,16.7
2,CCc1nc(N)c(C#N)c(-c2cccn2C)c1C,13.3
3,O=C(Nc1nccs1)C(NS(=O)(=O)c1ccc(Br)s1)c1ccccc1 (stereo not shown),-3.89
4,CCCCSc1nnc([C@H](C)NC(=O)OC(C)(C)C)o1,12.5
5,COC(=O)C(C)n1nc(C)n(-c2ccc(C)cc2)c1=O (stereo not shown),-5.27
6,O=S(=O)(c1ccccc1)N1N=C(c2ccccc2)CC1c1ccccc1F (stereo not shown),6.73
7,CCCOc1c(OC)cccc1C1CC(=O)Nc2cc3c(cc21)OCCO3 (stereo not shown),-1.64
8,CCN1C[C@]2(COC)CC[C@H](O)[C@]34C1[C@](O)([C@@H](OC)[C@H]23)[C@@]1(O)C[C@H](OC)[C@H]2C[C@@H]4[C@@H]1[C@H]2OC,14.1
9,COc1ccc(CC(=O)N2CCCC2)c(OC)c1,11.8
10,O=C(NCc1ccccc1)c1cc[n+](Cc2ccccc2)cc1.[Cl-],13.6
11,CC(C)c1nnc(NC(=O)CCC(=O)N2CCN(Cc3ccc(F)cc3)CC2)s1,-0.0872
12,O=C(C1=C(O)C(=O)N(CCCn2ccnc2)C1c1cccc(Br)c1)c1ccco1 (stereo not shown),26.2
13,COc1ccc(NC(=O)C(C)N2c3cccc4cccc(c34)S2(=O)=O)c(OC)c1 (stereo not shown),2.69
14,COc1ccc(NC(=O)COC(=O)/C=C/c2ccccc2[N+](=O)[O-])cc1,-16.3
15,O=S(=O)(Cc1ccccc1Cl)c1ncn[nH]1,14.2
16,Cc1ccc(CNC(=O)CSc2nc(C)cc(C)c2C#N)cc1,9.59
17,Cc1ccc(S(=O)(=O)N2CCC(C(=O)NC3CC3)CC2)cc1,-5.59
18,COC(=O)c1sccc1NC(=S)Nc1cc(C)ccc1OC,14.9
19,N#CC1=C(N)N=C(SCc2cccc3ccccc23)C(C(N)=O)C12CCCCC2 (stereo not shown),3.79
20,CNC(=O)COC(=O)c1cc(-c2ccccc2)nn1-c1ccccc1,-5.35
21,CCC(CC)c1nnc(NC(=O)COc2ccc3c(c2)OCO3)s1,13.1
22,COc1ccc(OC)c(/C=N/NC(=O)Cn2ccnc2C)c1,14.8

row,SMILES,"hERG current change (%, negative = inhibition) at 10uM [%]"
1,CC(C)C12CCC(C(=O)O)C(C1)C(=O)O2 (stereo not shown),13.9
2,CC(=O)C1=C(C)NC(SCC(=O)c2ccccc2)=C(C#N)C1CC(C)C (stereo not shown),-7.38
3,Cc1ccc(Nc2cc(C)nc(N3CCOCC3)n2)c(C)c1,3.67
4,COc1cc(/C=N/NC(=O)c2sc3nc(C)cc(C)c3c2N)ccc1O,-6.25
5,CC(=O)c1c(C)[nH]c(C(=O)OCC(=O)N2CCc3ccccc3C2)c1C,-13.9
6,C=C(C)CNC(=S)/N=c1\scc(C)n1CC,-0.245
7,CCOC(=O)c1ccc(S(=O)(=O)NNC(=O)c2cccc(N(C)C)c2)cc1,22.4
8,O=C(Cn1c[n+](CC(=O)c2ccc([N+](=O)[O-])cc2)cn1)c1ccc([N+](=O)[O-])cc1.[Br-],21.3
9,O=C(COC(=O)c1cccs1)NCc1ccccc1,14.6
10,O=C(COC(=O)c1ccccn1)Nc1ccc2c(c1)OCO2,-65.5
11,CC(NC(=O)NC12CC3CC(CC(C3)C1)C2)c1ccc2c(c1)OCO2 (stereo not shown),0.0168
12,Cc1cc(NC(=O)C(C)SCC(=O)OC(C)C(=O)Nc2cccc(C#N)c2)no1 (stereo not shown),-9.69
13,CS(=O)(=O)c1cccc(S(=O)(=O)N2CCN(c3ccccn3)CC2)c1,-8.6
14,O=C(NC1CCCC1)C1CCN(C(=O)NCc2ccccc2)CC1,-1.23
15,Cc1cc(C)cc(OCCNC(=O)c2ccc(Br)cc2)c1,30.5
16,CCOc1cc2nc3c4ccccc4n(C)c3nc2cc1OCC,15.4
17,COc1ccc(-n2nc(C(=O)NCC(=O)NCc3ccco3)c3ccccc3c2=O)c(OC)c1,11.3
18,CNc1ccc(Cl)nn1,18.6
19,O=C(NCCc1ccc(OC(F)F)cc1)C1CC(=O)N(c2ccc3c(c2)OCCO3)C1 (stereo not shown),-47.6
